Results as given in the supplement of paper PMC9446081.
Screen size: about 39,000 compounds; about 220 (0.56%) showed activity. This is one part of the list.
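Also: static incubation at 37 °C against the wild-type strain, values averaged over two biological replicates.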

The compounds below were run on Escherichia coli K-12 BW25113 (assay: relative growth (OD600 normalised to plate interquartile mean) (fraction); higher = less growth inhibition, active = 0.2 or less). Conditions: 50 µM; LB; incubation time: overnight (16-24 h).
CN1CCN(C(=O)C[C@@H]2C[C@@H]3c4cc(NC(=O)c5ccc6c(c5)OCO6)ccc4O[C@@H]3[C@@H](CO)O2)CC1 was tested, and the relative growth was inactive: 0.982. For COc1ccc(CN(C)C[C@@H]2OCCCC[C@H](C)Oc3ccc(NS(=O)(=O)c4ccc(F)cc4)cc3C(=O)N([C@@H](C)CO)C[C@@H]2C)cc1, the relative growth was inactive: 1.01. With COc1ccc(NC(=O)Nc2ccc3c(c2)[C@@H]2C[C@@H](CC(=O)NCc4ccccn4)O[C@@H](CO)[C@@H]2O3)cc1 the relative growth was inactive: 1.01. For C[C@@H]1CN([C@@H](C)CO)S(=O)(=O)c2ccc(-c3cccc(F)c3)cc2O[C@H]1CN(C)S(C)(=O)=O, the relative growth was inactive: 1. For C[C@H]1CCCCO[C@@H](CN(C)CC2CCCCC2)[C@@H](C)CN([C@@H](C)CO)C(=O)c2cc(NC(=O)Nc3ccc(F)cc3)ccc2O1, the relative growth was inactive: 0.99. For CC(C)[Si](C#CCCCC#N)(O[C@H](c1ccccc1)c1cn(Cc2cccc(Cl)c2)nn1)C(C)C, the relative growth was inactive: 1.01. For COc1ccc2c(c1)c(-c1ccccc1)nn2-c1ccc(C)cc1, the relative growth was inactive: 0.844. CO[C@@H]1CN(C)C(=O)c2cc(NC(=O)CCCC[C@@H]3SC[C@@H]4NC(=O)N[C@@H]43)ccc2OC[C@@H](C)N(Cc2ccc(-c3ccccn3)cc2)C[C@@H]1C was tested, and the relative growth was inactive: 0.949. For C[C@H]1CN([C@@H](C)CO)C(=O)Cc2cc(NS(=O)(=O)c3ccc(Cl)cc3)ccc2O[C@@H]1CN(C)Cc1ccc(Oc2ccccc2)cc1, the relative growth was inactive: 1.01. For Cc1ccc(S[C@]2(C(=O)NCCCN(C)C)CC(=O)N(C3Cc4ccccc4C3)[C@@H]2c2ccc(CO)cc2I)cc1, the relative growth was inactive: 0.966. In the case of C[C@@H]1CN([C@H](C)CO)C(=O)c2cc(NC(=O)Nc3ccc(F)cc3)ccc2O[C@@H](C)CCCCO[C@@H]1CN(C)S(=O)(=O)c1ccccc1, the relative growth is reported as inactive: 1.04. C[C@@H]1CN([C@H](C)CO)C(=O)c2cc(N(C)C)ccc2O[C@@H](C)CCCCO[C@H]1CN(C)Cc1ccc(C(=O)Nc2ccccc2N)cc1 was tested, and the relative growth was inactive: 1. With Cc1nn(C)cc1NC(=O)C[C@@H]1CC[C@H]2[C@H](COc3ccc(NC(=O)C4CCOCC4)cc3C(=O)N2C)O1 the relative growth was inactive: 1. For NC(=O)Nc1nc2ccccc2[nH]c1=O, the relative growth was inactive: 0.927. For COc1ccc(CN(C)C[C@@H]2OCCCC[C@@H](C)Oc3ccc(NC(=O)Nc4ccc5c(c4)OCO5)cc3C(=O)N([C@@H](C)CO)C[C@H]2C)cc1, the relative growth was inactive: 1.04. For Nc1cc(-c2ccccc2)ccc1O, the relative growth was inactive: 0.97. C[C@H]1CN([C@@H](C)CO)C(=O)c2cccc(NC(=O)c3ccc(-c4nccs4)cc3)c2O[C@H]1CN(C)C(=O)Nc1ccc2c(c1)OCO2 was tested, and the relative growth was inactive: 1.01. COc1ccc(S(=O)(=O)N(C)C[C@@H]2Oc3ccc(NC(=O)c4ccncc4)cc3C(=O)N([C@@H](C)CO)C[C@@H]2C)cc1 was tested, and the relative growth was inactive: 0.719. With C[C@H](CO)N1C[C@H](C)[C@@H](CN(C)C(=O)Nc2ccc(C(F)(F)F)cc2)Oc2ccc(NC(=O)NC3CCCCC3)cc2C1=O the relative growth was inactive: 1. Cc1ccc(S(=O)(=O)Nc2cc([C@@H](C(=O)OC(C)C)C(=O)C(F)(F)F)c(O)c3ccccc23)c(C)c1 was tested, and the relative growth was inactive: 0.994. In the case of C[C@@H]1CN([C@@H](C)CO)C(=O)c2cc(NC(=O)C3CCCCC3)ccc2O[C@@H](C)CCCCO[C@@H]1CN(C)Cc1ccc2c(c1)OCO2, the relative growth is reported as inactive: 0.976. For C[C@@H]1CN([C@H](C)CO)C(=O)c2cc(NC(=O)Cc3cn(C)c4ccccc34)ccc2O[C@H]1CN(C)Cc1ccc(Cl)c(Cl)c1, the relative growth was inactive: 1.02. For O=C(C[C@@H]1C[C@H]2c3cc(NS(=O)(=O)c4ccc(F)cc4)ccc3O[C@H]2[C@H](CO)O1)NCCc1ccccc1, the relative growth was inactive: 1. C[C@@H]1CN([C@H](C)CO)S(=O)(=O)c2ccc(C#Cc3ccccc3)cc2O[C@@H]1CN(C)C(=O)c1ccccn1 was tested, and the relative growth was inactive: 1.02. For COc1ccc(NC(=O)Nc2ccc3c(c2)C(=O)N([C@@H](C)CO)C[C@H](C)[C@@H](CN(C)C(=O)C2CCCCC2)OCCCC[C@H](C)O3)cc1, the relative growth was inactive: 1.03. In the case of COC(=O)[C@H](Cc1ccccc1)N1CC2=C[C@@H](C3CC3)n3c(=O)n(C)c(=O)n3[C@H]2[C@@H]1[C@@H](O)CCn1cc(-c2ccc(C(=O)NO)s2)nn1, the relative growth is reported as inactive: 0.973. With COc1ccc(S(=O)(=O)N(C)C[C@H]2Oc3ccc(NC(=O)Nc4cccc5ccccc45)cc3C(=O)N([C@H](C)CO)C[C@H]2C)cc1 the relative growth was inactive: 1.01. COCC(=O)N1C[C@@H](C)[C@@H](OC)CN(C)C(=O)c2cc(NC(=O)c3ccc(OC)cc3)ccc2OC[C@H]1C was tested, and the relative growth was inactive: 0.979. CN1C(=O)c2cc(NC(=O)c3cnccn3)ccc2OC[C@H]2O[C@@H](CC(=O)N[C@@H]3CCN(Cc4ccccc4)C3)CC[C@H]21 was tested, and the relative growth was inactive: 1. In the case of C[C@@H]1CCCCO[C@@H](CN(C)C(=O)Nc2ccc(F)cc2)[C@H](C)CN([C@@H](C)CO)C(=O)c2cc(NC(=O)Cc3ccccc3)ccc2O1, the relative growth is reported as inactive: 1.03. With O=C(C[C@@H]1CC[C@@H]2[C@H](COC[C@@H](O)CN2S(=O)(=O)c2ccc(Cl)cc2)O1)NCC1CCCCC1 the relative growth was inactive: 0.976. For C[C@@H]1CN([C@H](C)CO)C(=O)c2cc(NC(=O)Cc3cn(C)c4ccccc34)ccc2O[C@H]1CN(C)CC1CCCCC1, the relative growth was inactive: 0.983. For C[C@@H]1CN([C@@H](C)CO)S(=O)(=O)c2ccc(-c3cccc(C#N)c3)cc2O[C@H]1CN(C)C(=O)c1ccncc1, the relative growth was inactive: 0.949. In the case of C[C@@H]1CN([C@H](C)CO)C(=O)c2cc(NC(=O)Cc3ccccc3)ccc2O[C@H]1CN(C)Cc1ccc(C(=O)Nc2ccccc2N)cc1, the relative growth is reported as inactive: 1.01. With COCCNC(=O)C[C@H]1CC[C@@H]2[C@H](COC[C@H](O)CN2C(=O)Nc2ccccc2OC)O1 the relative growth was inactive: 1. With C[C@H](CO)N1C[C@H](C)[C@@H](CN(C)S(=O)(=O)c2cccs2)Oc2c(NS(=O)(=O)c3ccc(F)cc3)cccc2C1=O the relative growth was inactive: 1.01. C[C@H](CO)N1C[C@H](C)[C@H](CN(C)C(=O)C2CCOCC2)Oc2ncc(C#Cc3cccc(F)c3)cc2C1=O was tested, and the relative growth was inactive: 1.01.
